No constants are given. Whether binding was seen depends on the method and setting. In cells and extracts the contact can be indirect.
Target: endogenous MDM2 (human (endogenous in SHEP)) (UniProt Q00987)
Assay: proximity ligation; DuoLink PLA on SHEP cells fixed in 4% PFA and permeabilised; pairs of primary antibodies (anti-GFP or anti-Flag for the TrkC constructs; pan-importin, anti-Hey1 or anti-MDM2 for endogenous proteins); red spots counted per cell

The chains behind the UniProt entries cited, without tags or fusion partners. Residues count along the entry.
UniProt Q00987: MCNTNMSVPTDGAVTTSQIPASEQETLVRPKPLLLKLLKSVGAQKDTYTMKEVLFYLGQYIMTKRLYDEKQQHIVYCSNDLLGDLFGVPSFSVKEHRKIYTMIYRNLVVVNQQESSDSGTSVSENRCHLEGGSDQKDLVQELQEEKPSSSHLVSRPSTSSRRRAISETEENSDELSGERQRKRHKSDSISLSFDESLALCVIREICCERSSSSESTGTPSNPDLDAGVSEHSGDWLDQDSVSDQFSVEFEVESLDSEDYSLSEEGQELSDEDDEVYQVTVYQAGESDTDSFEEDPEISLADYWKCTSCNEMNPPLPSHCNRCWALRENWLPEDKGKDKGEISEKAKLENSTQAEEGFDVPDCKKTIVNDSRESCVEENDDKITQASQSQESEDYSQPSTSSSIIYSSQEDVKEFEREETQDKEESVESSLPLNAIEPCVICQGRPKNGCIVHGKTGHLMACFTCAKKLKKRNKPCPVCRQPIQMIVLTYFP
UniProt Q16288, residues 496-641: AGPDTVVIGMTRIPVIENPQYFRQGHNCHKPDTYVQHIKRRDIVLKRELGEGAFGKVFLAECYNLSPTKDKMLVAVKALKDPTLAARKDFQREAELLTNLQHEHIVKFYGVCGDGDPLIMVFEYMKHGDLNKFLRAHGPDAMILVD

In the case of “TrkC-KF-Flag (from UniProt Q16288 496-641) (domain or fragment)”, the binding is reported as “no binding”.

Reference: paper PMC5965893
